Hit rate of the full screen: of about 120,000 compounds, about 5,300 (4.4%) were called active. This list was built around the results that the source calls inconclusive (neither active nor inactive); the mix of calls is not that of the screen. Calls follow the shape of the dose curve; as a rule, active = well fitted inhibition curve with a large enough effect; inconclusive = small, poorly fitted or top-dose-only effect; inactive = no such curve, though single readings can be large or run the other way. Potencies of inconclusive entries are doubtful fits and often do not repeat.
Assay: qHTS Primary assay for Inhibitors of Plasmodium falciparum Dd2 growth in vitro; also: nearly all actives have a fitted effect of over 65% in size
Conditions: P. falciparum Dd2 growth, SYBR Green, 72 h; series mostly up to 28.9 µM
How it was run: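 Infected erythrocytes (Dd2, 0.3% parasitemia, 2.5% hematocrit final) are added to compound in RPMI-1640/Albumax II medium, grown 72 h at 37C in low oxygen, then lysed with saponin/Triton-X containing SYBR Green and read by fluorescence.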
For `CC(CNC(=O)C1CCN(C(=O)c2ncn3c2COC(c2ccc(F)cc2)C3)CC1)c1ccccc1` (stereo not drawn), the Potency was “inactive”.
With `CC(C)C[C@@H](NC(=O)C1=C[C@@H](NC(=O)c2cccnc2)[C@@H](O)[C@H](O)C1)C(N)=O` the Potency was “inactive”.
For `O=C(Nc1ccc(C2(C(=O)N3CCN(c4ccccn4)CC3)CCCCC2)cc1)C1CC1`, the Potency was inconclusive: 11.2 µM [inhibitor, single point].
With `CNC(=O)[C@@H]1C[C@H](n2cc(CNC(=O)Nc3ccc(F)cc3F)nn2)CN1` the Potency was “inactive”.
With `O=C1NCCOCCN(C(=O)COCc2ccccc2)[C@H]2CCC[C@@H]12` the Potency was “inactive”.
In the case of `COc1cccc(CNC(=O)[C@@H]2C[C@@H](O)CN2C2CCN(C(=O)c3ccsc3)CC2)c1`, the Potency is reported as inconclusive: 0.891 µM [inhibitor, full curve, poor fit].
In the case of `CC(C)c1ccc(CN(Cc2ccco2)c2cnc(S(C)(=O)=O)nc2C(=O)Nc2ccccc2)cc1`, the Potency is reported as inconclusive: 17.8 µM [inhibitor, single point].
In the case of `O=C(NCCc1cccnc1)c1ccc(-c2nnc3ccc(NC(=O)C4CCC4)cn23)cc1`, the Potency is reported as active: 0.398 µM.
In the case of `Cn1ccnc1CN1C[C@@H]2C[C@H]1C(=O)N(CC1CC1)c1ccccc1O2`, the Potency is reported as inconclusive: 10 µM [inhibitor, partial curve, poor fit].
With `O=C(NCc1ccc(F)cc1)c1nc(-c2ccccc2)c2ccccn12` the Potency was active: 11.2 µM.
For `CCOc1ccc(CNCCSc2nnnn2C)cc1OC`, the Potency was “inactive”.
For `O=C1Nc2ccc(-c3ccccc3F)cc2C(=O)N2CCN(C(=O)c3cccs3)C[C@H]12`, the Potency was inconclusive: 7.94 µM [inhibitor, partial curve, poor fit].
For `NCC1CCCN(Cc2ccc(-c3nc(-c4cccnc4)cc(=O)[nH]3)cc2)C1` (stereo not drawn), the Potency was “inactive”.
For `Cc1ccc(C(=O)N[C@H]2CO[C@H]3[C@@H]2OC[C@@H]3Nc2nccc(-c3cccs3)n2)cc1`, the Potency was inconclusive: 7.94 µM [inhibitor, partial curve, poor fit].
For `O=C1Cc2c(-c3ccccc3OCc3ccccc3)n[nH]c2CN1CC1CCOCC1`, the Potency was inconclusive: 28.2 µM [inhibitor, single point].
With `CC(C)(C)NC(=O)CSc1nc(-c2ccc(F)cc2)cc(C(F)(F)F)n1` the Potency was inconclusive: 17.8 µM [inhibitor, partial curve, poor fit].
In the case of `O=C(NCc1ccccc1)c1ccc2c(c1)N(Cc1ccccc1)C(=O)c1ccccc1S2(=O)=O`, the Potency is reported as inconclusive: 10 µM [inhibitor, single point].
With `Cc1nnc(-c2cc(-c3ccc(N4CCOCC4)cc3)ccn2)n1C1CCCCC1` the Potency was “inactive”.
In the case of `COc1ccc(CCC(=O)NCc2nnc3c(-c4nc(C)no4)cccn23)cc1`, the Potency is reported as “inactive”.
For `CC(=O)Nc1cccc(-c2cc3c(ccn3CC3CCN(C)CC3)c(N3CCOCC3)n2)c1`, the Potency was inconclusive: 3.98 µM [inhibitor, single point].
With `CN(C)c1nc(-c2ccncc2)nc2c1CCN(C(=O)c1ccn[nH]1)C2` the Potency was inconclusive: 15.8 µM [inhibitor, single point].
For `CC(C)CCNC(=O)C1Cn2cccc2C(=O)N1Cc1ccccc1` (stereo not drawn), the Potency was “inactive”.
With `O=C(c1nnc(CNCc2cnccn2)n1-c1ccccc1)N1CCC[C@@H]1C(c1ccccc1)c1ccccc1` the Potency was inconclusive: 12.6 µM [inhibitor, single point].
With `Cc1cccc(-c2noc(-c3nc(C)no3)n2)c1` the Potency was “inactive”.
For `COc1ccc(CNC(=O)C2CCN(c3cc(C(F)(F)F)nc(C)n3)CC2)cc1`, the Potency was inconclusive: 10 µM [inhibitor, single point].
In the case of `O=C1CC2(CCN(S(=O)(=O)c3cccs3)CC2)Oc2cc(Cl)ccc21`, the Potency is reported as inconclusive: 20 µM [inhibitor, single point].
In the case of `CCCCOc1cccc(C(=O)N(Cc2ccc(Br)o2)C2CCS(=O)(=O)C2)c1` (stereo not drawn), the Potency is reported as inconclusive: 1.58 µM [inhibitor, partial curve].
In the case of `CCn1cc(S(=O)(=O)NCC2Cn3cccc3C(=O)N2CCOC)cn1` (stereo not drawn), the Potency is reported as “inactive”.
In the case of `CC(C)Cc1ccc(S(=O)(=O)N2CCCC(Cn3cnc4cccnc43)C2)cc1` (stereo not drawn), the Potency is reported as “inactive”.
For `O=C(Nc1cccc(F)c1)[C@@H]1C[C@@H](c2cccc(C(F)(F)F)c2)N(CC2CCOCC2)C1`, the Potency was inconclusive: 2.51 µM [inhibitor, partial curve, poor fit].
With `Cc1nc(-c2cccc(NC(=O)N[C@H](C)c3onc(-c4ccc(F)cc4)c3C(=O)O)c2)no1` the Potency was “inactive”.
In the case of `COc1ccc(NC(=O)CCn2cnnn2)cc1NC(=O)c1ccccc1`, the Potency is reported as “inactive”.
With `CC(C)Cc1cn(C2CCN(Cc3cc4c(cc3Cl)OCO4)CC2)nn1` the Potency was inconclusive: 8.91 µM [inhibitor, partial curve, poor fit].
For `O=C(CC1CCCN(c2cnn(CC3CC3)c(=O)c2)C1)NCc1ccc(Cl)cc1` (stereo not drawn), the Potency was “inactive”.
For `Cc1nn(C)c(C)c1S(=O)(=O)N1CCC2(CCC(=O)N(Cc3ccccc3)CC2)CC1`, the Potency was “inactive”.
For `CCc1cc(C(=O)N2CCCC(c3nnc(Cn4ccnc4)n3C)C2)ccn1` (stereo not drawn), the Potency was “inactive”.
In the case of `Cn1c(=O)n(C)c2cc(CNCc3ccccc3)ccc21`, the Potency is reported as “inactive”.
With `COCc1cc(CNC(=O)CC(c2ccccc2)c2ccccc2Cl)[nH]n1` (stereo not drawn) the Potency was “inactive”.
In the case of `Cc1cc(C)c(S(=O)(=O)Nc2cc(Cl)c3oc4c(c3c2)C(=O)CCC4)cc1C`, the Potency is reported as inconclusive: 0.141 µM [inhibitor, full curve, poor fit].
In the case of `COc1cccc(-c2nc3c([nH]2)CC(C)(C)CNC3=O)c1OC`, the Potency is reported as “inactive”.
In the case of `Cc1cn2nc(C(=O)NC3CCCCCC3)cc2c(N2CCSCC2)n1`, the Potency is reported as inconclusive: 3.16 µM [inhibitor, partial curve, poor fit].
For `CN(C)[C@H]1CCN(C(=O)c2ccc(S(N)(=O)=O)cc2)C[C@H]1CCC(=O)O`, the Potency was “inactive”.
For `CCn1ncnc1C(C)NC1CCC2(CCNCC2)CC1` (stereo not drawn), the Potency was “inactive”.
For `COc1ccc(Cc2nc3ccc(C(=O)NCCc4ccc(OC)c(OC)c4)cc3o2)cc1`, the Potency was inconclusive: 8.91 µM [inhibitor, partial curve].
For `Cc1cc(C)cc(NC(c2nnc(-c3cccc(F)c3)o2)c2ccc(F)cc2Cl)c1` (stereo not drawn), the Potency was active: 3.55 µM.
In the case of `CCOC(=O)c1ccc2c(c1)N(Cc1ccc(F)cc1Cl)C(=O)c1ccccc1S2`, the Potency is reported as inconclusive: 10 µM [inhibitor, single point].
With `CC(=O)N1CCCC(C(=O)NCc2nc(Cc3cccs3)no2)C1` (stereo not drawn) the Potency was “inactive”.
With `Cc1cnc(=O)[nH]c1SCC(=O)Nc1cc(C(F)(F)F)ccc1Cl` the Potency was “inactive”.
With `COc1ccc(F)c(CN2CCCC(O)(CN(C)Cc3ccccc3)C2=O)c1` (stereo not drawn) the Potency was inconclusive: 12.6 µM [inhibitor, partial curve].
For `CN(C)CCNC(=O)c1nc2nc(-c3ccccc3)c(-c3ccc(O)c(F)c3)cc2n1C`, the Potency was inconclusive: 2.51 µM [inhibitor, full curve].
In the case of `Cc1ccc(CNC(=O)CCCN2C(=O)CCn3nc(-c4cccn4C)cc32)cc1`, the Potency is reported as active: 5.01 µM.
In the case of `Cc1cccc(C(=O)N2C(C(=O)NC(C)c3ccccc3)COC23CCC(C)CC3)c1` (stereo not drawn), the Potency is reported as inconclusive: 10 µM [inhibitor, partial curve, poor fit].
In the case of `COCCN1C(=O)[C@H]2CN(Cc3cccc(C)c3)C[C@H]2C1=O`, the Potency is reported as “inactive”.
With `Cc1nc(-c2c3n(c(=O)n(CC(=O)Nc4ccc(F)cc4)c2=O)CCCC3)no1` the Potency was “inactive”.
For `O=S(=O)(c1ccc(F)cc1)N1CC(c2nnc(-c3ccncc3)o2)C2(CCOCC2)C1` (stereo not drawn), the Potency was “inactive”.
With `CN1CC(=O)N(c2ccc(Cl)cc2)Cc2c1ncnc2N1CCc2ccccc2C1` the Potency was inconclusive: 11.2 µM [inhibitor, single point].
In the case of `O=C(c1ccco1)N1CCC2(CCCCO2)CC1`, the Potency is reported as “inactive”.
In the case of `COCCN1CC2CN(C(=O)CCCc3ccccc3)CC(C1)O2`, the Potency is reported as active: 11.2 µM.
For `Cc1ccc(CN(C)Cc2cccn2C)cc1`, the Potency was “inactive”.
In the case of `CCN1CCN(c2cc(C)c3cc(NC(=O)/C=C/c4ccc(C)cc4)ccc3n2)CC1`, the Potency is reported as active: 1.12 µM.
For `c1cnc2nc(-c3c[nH]c4ccccc34)[nH]c2c1`, the Potency was “inactive”.
For `COc1cccc(NC(=O)N(Cc2cn(C)c3ccccc23)C2CCCCCC2)c1`, the Potency was active: 6.31 µM.
For `C=CCNC(=O)C(NC(=O)c1ccccc1)C1CCN(C(=O)c2ccccc2C)CC1` (stereo not drawn), the Potency was inconclusive: 2.82 µM [inhibitor, partial curve, poor fit].
With `O=C(Nc1ccccc1Cl)N1CCCC2(C1)Nc1cccnc1NC2=NC1CCCC1` (stereo not drawn) the outcome was “inactive [at 5.79 µM]”.
For `COCCN[C@H]1C[C@@H]2c3[nH]c4ccccc4c3C[C@@H](C(=O)OC)N2[C@H](c2ccccc2)C1`, the Potency was inconclusive: 3.16 µM [inhibitor, full curve, poor fit].
With `COc1ccc(C2=NOC3(CCN(Cc4cccc5ccccc45)C3)C2)cc1` (stereo not drawn) the Potency was “inactive”.
In the case of `Cc1ccc(C2=NC3(CCN(C(=O)c4ccsc4)CC3)ON2)cc1`, the Potency is reported as inconclusive: 17.8 µM [inhibitor, single point].
In the case of `CCc1ccc(Sc2cc(C(=O)NCCCN3CCC(C)CC3)c3ccccc3n2)cc1`, the Potency is reported as inconclusive: 17.8 µM [inhibitor, single point].
For `O=C(c1cccc(Cl)c1)N1CCc2nc(C3CC3)nc(-c3ccc(O)cc3)c2CC1`, the Potency was active: 5.01 µM.
With `CCOc1cc(C(=O)N2CCC(Cc3nc(-c4cnccn4)no3)CC2)cc(OCC)c1OCC` the Potency was “inactive”.
In the case of `CC(C)NC(=O)NC[C@H]1C[C@@H]2CCN1C[C@@H]2CN1CCOCC1`, the Potency is reported as “inactive”.
For `CCOc1ccc(Sc2cc(C(=O)NCc3ccccc3Cl)c3ccccc3n2)cc1`, the Potency was inconclusive: 17.8 µM [inhibitor, single point].
In the case of `Cc1noc(C)c1-c1cc2c(c(-c3cccc(CO)c3)c1)C(=O)N(C)C2`, the Potency is reported as inconclusive: 31.6 µM [inhibitor, single point].
Potency is read from the fitted curve at half-maximal effect; tags tell the direction and shape of the fitted curve.
